Data published in patent publication US20180312565A1 (Affibody, published 2018).
Where two headings read alike, the source gives them in different places.

Columns and labels:
[1] = molecular target: T1, mouse PD-L1 Fc Chimera (R&D Systems, cat. no. 1019-B7) (mouse, UniProt Q9EP73 19-238); test: SPR
T1 construct: bought; also called mPD-L1; not shown: Fc part of the bought Fc chimera, not described
Procedure: (§1) One flow cell surface on each chip was activated and deactivated for use as blank during analyte injections. In the kinetic experiment, HBS-EP was used as running buffer and the flow rate was 50 μl/min. The analytes, i.e. the Z variants, were each diluted in HBS-EP buffer within a concentration range of 1000 to 0.01 nM and injected for 5 min, followed by dissociation in running buffer for 15-25 min. After dissociation, the surfaces were regenerated with one or two injections of 0.1% SDS. Kinetic constants were calculated from the sensorgrams using the Langmuir 1:1 model of BiaEvaluation software 4.1 (GE Healthcare).

[2] = molecular target: T2, human PD-L1 Fc Chimera (R&D Systems, cat. no. 156-B7-100) (human, UniProt Q9NZQ7 19-239, biotinylated with Sulfo-NHS-LC-Biotin in ELISA and AlphaLISA; not biotinylated in SPR); test: SPR, 1.67-135 nM
T2 construct: bought; also called hPD-L1; biotinylated hPD-L1; not shown: Fc part of the bought Fc chimera, not described
Procedure: (§2) The Z variants were also tested for binding against the sequence-related proteins hPD-L2, hB7-H3 and hB7-H4. The Biacore analyses were performed essentially as described in Example 3, however a flow rate of 30 μl/min was used. […] In the specificity test, i.e. the binding analysis against hPD-L2, hB7-H3 and hB7-H4, the 24 Z variants were injected at a concentration of 500 nM.

[3] = molecular target: T3, rhesus PD-L1/Fc Chimera (Sino Biological Inc., cat. no. 90251-C02H) (rhesus monkey, UniProt F6PJN1 19-239); test: SPR, 1.67-135 nM
T3 construct: bought; also called RhPD-L1; rhesus monkey PD-L1; not shown: Fc part of the bought Fc chimera, not described
Procedure: as §2

[4] = molecular target: T2, human PD-L1 Fc Chimera (R&D Systems, …); test: SPR, hPD-L1 immobilized
Procedure: as §1

[5] = molecular target: T3, rhesus PD-L1/Fc Chimera (Sino …); test: SPR ranking, 5 and 50 nM
Procedure: as §2

[6] = molecular target: T2, human PD-L1 Fc Chimera (R&D Systems, …); test: AlphaLISA, blocks hPD-L1 binding to hPD-1
Procedure: Finally, streptavidin coated Donor beads (Perkin Elmer, cat. no. 6772002) were added to a final concentration of 40 μg/ml and incubated for 30 min. All incubations were performed at RT in the dark. The plate was analyzed in the EnSpire instrument and the IC50 values were calculated using GraphPad Prism 5.

[7] = molecular target: T2, human PD-L1 Fc Chimera (R&D Systems, …); test: AlphaLISA, blocks hPD-L1 binding to hPD-1; remark: listed apart in the source
Procedure: Exception 2: hPD-1-coated Acceptor beads were added to a final concentration of 10 μg/ml and incubated for 50 min.

[8] = molecular target: T4, PD-L1 on PD-L1 expressing cells (IFNg-stimulated THP-1 cells; MDA-MB-231 cells) (UniProt Q9NZQ7 19-290, limits assumed); test: FACS, IFNg-stimulated THP-1 cells, 10 µg/ml, normalized to Z13091
T4 construct: whole, on cells
Procedure: Cells incubated with buffer alone were used as negative controls. […] Data from 10,000 cells were obtained using a FACS Calibur ([…]) and the data was analyzed using Flowing software 2.5.0 (Turku University). Mean fluorescence intensity (MFI) was used as a read out of binding capacity.

[9] = molecular target: T5, human PD-L2 Fc Chimera (R&D Systems, cat. no. 1224-PL-100) (human, UniProt Q9BQ51 20-219, biotinylated in ELISA); test: SPR (Biacore 2000), hPD-L2 immobilized on CM5 chip, Z variant injected at 50, 5 and 0.5 nM
T5 construct: bought; also called hPD-L2; not shown: Fc part of the bought Fc chimera, not described
T5 sequence (looked up): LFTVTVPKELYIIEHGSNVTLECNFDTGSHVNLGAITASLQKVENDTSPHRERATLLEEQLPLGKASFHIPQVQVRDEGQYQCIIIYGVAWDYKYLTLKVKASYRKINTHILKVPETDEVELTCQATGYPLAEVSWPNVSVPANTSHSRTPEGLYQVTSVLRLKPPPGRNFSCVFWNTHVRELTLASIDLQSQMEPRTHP
Procedure: as §1

[10] = molecular target: T6, human B7-H3 Fc Chimera (R&D Systems, cat. no. 1027-B3-100) (human, UniProt Q5ZPR3-2 29-245, biotinylated in ELISA); test: SPR (Biacore 2000), hB7-H3 immobilized on CM5 chip, Z variant injected at 50, 5 and 0.5 nM
T6 construct: bought; also called hB7-H3; not shown: Fc part of the bought Fc chimera, not described
T6 sequence (looked up): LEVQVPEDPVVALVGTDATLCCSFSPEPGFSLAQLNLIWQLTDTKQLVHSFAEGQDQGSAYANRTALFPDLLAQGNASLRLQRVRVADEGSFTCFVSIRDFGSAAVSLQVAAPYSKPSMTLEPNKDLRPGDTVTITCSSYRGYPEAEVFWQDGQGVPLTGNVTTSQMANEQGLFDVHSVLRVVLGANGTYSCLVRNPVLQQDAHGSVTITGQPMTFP
Procedure: as §1

[11] = molecular target: T7, human B7-H4 (R&D Systems, cat. no. 6576-B7-50) (human, UniProt Q7Z7D3 29-258, biotinylated in ELISA); test: SPR (Biacore 2000), hB7-H4 immobilized on CM5 chip, Z variant injected at 50, 5 and 0.5 nM
T7 construct: bought; also called hB7-H4
T7 sequence (looked up): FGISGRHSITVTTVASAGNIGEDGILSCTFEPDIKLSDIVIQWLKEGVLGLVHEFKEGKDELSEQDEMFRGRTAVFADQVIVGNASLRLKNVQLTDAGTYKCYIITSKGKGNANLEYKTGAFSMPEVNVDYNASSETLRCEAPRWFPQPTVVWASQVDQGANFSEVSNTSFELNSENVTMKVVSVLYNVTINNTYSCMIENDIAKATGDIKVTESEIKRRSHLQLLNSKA
Procedure: as §1

T3 sequence (F6PJN1 entry or part of it C02H C02H): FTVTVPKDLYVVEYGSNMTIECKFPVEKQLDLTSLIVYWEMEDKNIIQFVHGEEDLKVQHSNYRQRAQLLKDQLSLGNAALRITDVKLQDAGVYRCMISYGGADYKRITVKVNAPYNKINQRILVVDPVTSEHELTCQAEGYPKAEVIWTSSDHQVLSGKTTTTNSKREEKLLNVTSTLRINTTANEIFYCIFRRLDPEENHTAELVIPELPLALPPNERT
T1 sequence (Q9EP73 19-238, change not shown): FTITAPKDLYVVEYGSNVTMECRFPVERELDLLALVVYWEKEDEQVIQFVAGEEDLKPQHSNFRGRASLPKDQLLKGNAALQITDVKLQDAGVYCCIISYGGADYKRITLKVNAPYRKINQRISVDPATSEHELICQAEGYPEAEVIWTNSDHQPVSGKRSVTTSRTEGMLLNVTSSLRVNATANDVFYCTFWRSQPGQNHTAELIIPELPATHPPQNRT

B1: His6-Z13091 (designed binder)
chain: MGSSHHHHHHLQVDAKYAKERNNAAFEILRLPNLTNGQHWAFIWKLADDPSQSSELLSEAKKLNDSQAPKVD
- binding result [1]: no binding (tested: 50 nM)
- Kd [2]: 0.63 nM
- Kd [3]: 0.54 nM
- Kd [4]: 0.46 nM
- Kd [5]: ~5.2 nM
- IC50 [6]: 6.9 nM
- IC50 [7]: 1.1 nM
- MFI (normalized) [8]: 1
- binding result [9]: no binding (tested: 50 nM)
- binding result [10]: no binding (tested: 50 nM)
- binding result [11]: no binding (tested: 50 nM)
